Screen size: about 200,000 compounds; about 4,500 (2.2%) were called active. The inconclusive results got no clear call from the source; some entries with a clear call stand among them for comparison. Calls come from the whole dose curve; as a rule, active = well fitted inhibition curve with a large enough effect; inconclusive = small, poorly fitted or top-dose-only effect, or effect the other way; inactive = flat fitted curve, though single readings scatter. Potencies of inconclusive entries are doubtful fits and often do not repeat.
Each compound was assayed against Cruzipain (Trypanosoma cruzi) (UniProt P25779) (assay: qHTS Assay for Promiscuous and Specific Inhibitors of Cruzain (without detergent)). Settings: purified cruzain, Z-FR-AMC fluorescence, no detergent.
Chain of UniProt P25779 (P25779 whole entry, looked up): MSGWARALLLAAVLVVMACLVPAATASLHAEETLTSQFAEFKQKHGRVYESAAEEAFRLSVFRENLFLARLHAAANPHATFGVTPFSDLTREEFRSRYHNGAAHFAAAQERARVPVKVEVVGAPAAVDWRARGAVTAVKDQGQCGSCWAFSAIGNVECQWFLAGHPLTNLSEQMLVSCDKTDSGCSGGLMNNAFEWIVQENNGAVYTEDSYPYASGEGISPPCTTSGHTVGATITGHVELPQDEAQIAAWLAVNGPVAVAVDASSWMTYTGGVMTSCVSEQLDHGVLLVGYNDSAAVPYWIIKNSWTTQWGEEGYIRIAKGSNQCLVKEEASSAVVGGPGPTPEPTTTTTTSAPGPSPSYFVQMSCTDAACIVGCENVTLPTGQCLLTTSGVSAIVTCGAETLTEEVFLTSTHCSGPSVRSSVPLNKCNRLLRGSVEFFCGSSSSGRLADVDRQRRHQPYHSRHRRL
How it was run: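 Purified cruzain at 1.5 nM, pre-incubated 15 min with compound at room temperature in 100 mM sodium acetate pH 5.5, 5 mM DTT, 0.00005% Triton X-100. Reaction started with 2 uM Z-FR-AMC; AMC fluorescence increase over 60 s gives rate.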
In the case of `Cc1ccccc1C(=N)c1ccccc1Cc1cccc2ccccc12`, the max response, negative = inhibition is reported as inactive: -9.54%.
In the case of `Cc1cc(C)cc(N2C(=O)CSC23C(=O)N(CC(=O)Nc2ccc(F)cc2F)c2ccccc23)c1` (centres undefined), the max response, negative = inhibition is reported as inactive: -10.3%.
With `O=C(NC1CC1)c1cc2c(s1)-c1ccccc1OC2` the Potency was inconclusive: 6.31 µM [inhibitor, partial curve].
In the case of `CC1C/C=C/C=C/C=C/C=C/C(O[C@@H]2O[C@H](C)[C@@H](O)[C@H](N)[C@@H]2O)CC2OC(O)(CC(O)CC3OC3/C=C/C(=O)O1)CC(O)C2C(=O)O` (some centres undefined), the Potency is reported as inconclusive: 25.1 µM [activator, partial curve].
In the case of `CCn1cc(C(=O)NCc2ccc3c(c2)OCO3)c2cc(OC)c(OC)cc2c1=O`, the Potency is reported as inconclusive: 39.8 µM [activator, single point].
In the case of `COc1ccc(-c2cnnn2-c2ccc(NC(=O)/C=C/c3ccc(OC)c(OC)c3)cc2)cc1`, the Potency is reported as active: 12.6 µM.
`COc1ccccc1C(=O)N1CCC(c2noc(-c3ccc(S(=O)(=O)N4CCCC4)cc3)n2)CC1` was tested, and the Potency was inconclusive: 31.6 µM [activator, single point].
In the case of `CC(C)CCn1c(=O)c2sccc2n2c(CCCC(=O)NCCc3ccccc3)nnc12`, the Potency is reported as inconclusive: 25.1 µM [activator, single point].
`O=C(c1ccco1)N1CCN(c2ncnc3c2nnn3Cc2ccccc2Cl)CC1` was tested, and the Potency was inconclusive: 39.8 µM [activator, single point].
For `Cc1nc2ccc(S(=O)(=O)N(CC(=O)Nc3cccc(F)c3)Cc3ccccc3)cc2s1`, the max response, negative = inhibition was inactive: -2.1%.
With `O=C(N/N=C/c1cc2c3c(c1O)CCCN3CCC2)c1ccccc1O` the Potency was inconclusive: 31.6 µM [inhibitor, single point].
`C=C(C[C@]1(C(=O)OC)CC2(CC=C(C)C)C(=O)C(C(=O)CC(C)C)=C(O)C(CC=C(C)C)(C1)C2=O)C(=O)OC` (some centres undefined) was tested, and the Potency was inconclusive: 39.8 µM [activator, single point].
`Cn1c(=O)c2cc(S(=O)(=O)NC(Cc3ccccc3)C(=O)NCc3ccco3)ccc2n(C)c1=O` (centres undefined) was tested, and the Potency was active: 15.8 µM.
In the case of `CCOc1ccc(OCC)c(NC(=O)Cn2nc(CC)n3c(cc4sccc43)c2=O)c1`, the max response, negative = inhibition is reported as inactive: 5.8%.
With `O=C(CN1CCOCC1)Nc1ncc(Cc2cccc3ccccc23)s1` the Potency was inconclusive: 39.8 µM [activator, single point].
For `Cc1cc(=O)n2nc(N(C)CC(=O)NCc3cccc(Br)c3)sc2n1`, the max response, negative = inhibition was inactive: 1.76%.
With `NC(=S)N/N=C/c1ccc2ccccc2c1` the Potency was active: 0.794 µM.
For `COC(=O)[C@@]1(Cc2ccc(OC)cc2)[C@H]2c3cc(C(=O)N(C)C)n(Cc4ccccc4)c3C[C@H]2CN1C(=O)c1ccccc1`, the Potency was inconclusive: 39.8 µM [activator, single point].
`CCOC(=O)C1CCN(C(=O)COc2cc(C)c(Br)cc2C)CC1` was tested, and the Potency was inconclusive: 39.8 µM [activator, single point].
`CCOc1ccccc1NC(=O)C(OC(=O)c1ccc(O)cc1)c1ccccc1` (centres undefined) was tested, and the Potency was inconclusive: 25.1 µM [inhibitor, partial curve].
For `COc1cccc(CSc2nc3n(n2)C(CC(C)C)C(C(=O)Nc2ccccc2OC)=C(C)N3)c1` (centres undefined), the max response, negative = inhibition was inactive: -2.78%.
For `O=C(CSc1ncnc2c1cnn2-c1ccc(F)cc1)NCc1ccc2c(c1)OCO2`, the Potency was inconclusive: 31.6 µM [inhibitor, single point].
For `CCc1ccc(Oc2c(C(F)(F)F)oc3c(CN4CCC(C)CC4)c(O)ccc3c2=O)cc1`, the max response, negative = inhibition was inactive: 7.24%.
`COc1cc(-c2cc(OC)c3c(C)oc(C)c3c(=O)c2)ccc1O` was tested, and the Potency was inconclusive: 39.8 µM [activator, single point].
With `Cc1cc(C)cc(NC(=S)NCc2cccn2C)c1` the max response, negative = inhibition was inactive: -8.11%.
`COC(=O)[C@@]1(Cc2ccccc2)[C@H]2c3cc(C(=O)N4CCCC4)n(Cc4ccccc4)c3C[C@H]2CN1C(=O)c1ccccc1` was tested, and the Potency was inconclusive: 20 µM [activator, partial curve].
With `COc1ccccc1-c1nn2c(C3COc4ccccc4O3)nnc2s1` (centres undefined) the Potency was inconclusive: 39.8 µM [activator, single point].
For `CC(C)(C)c1ccc(C(=O)Nc2nnc(Cc3c[nH]c4ccccc34)s2)cc1`, the Potency was inconclusive: 39.8 µM [inhibitor, single point].
`COc1ccc(CCNC(=O)c2ccc3c(c2)N(Cc2ccc(Cl)cc2)C(=O)c2ccccc2S3)cc1OC` was tested, and the Potency was inconclusive: 31.6 µM [inhibitor, single point].
With `CCOc1ccc(-c2nn(CC(=O)NC3CCCC3)c3c2cnc2ccc(C)cc23)cc1` the max response, negative = inhibition was inactive: 9.61%.
In the case of `COc1ccc(C(=O)N2CCN(c3ccc(C)cc3C)CC2)cc1OC`, the Potency is reported as inconclusive: 31.6 µM [activator, single point].
`CC(C)CCNC(=O)Nc1ccc2c(c1)N(Cc1ccccc1)C(=O)c1ccccc1S2` was tested, and the Potency was inconclusive: 25.1 µM [inhibitor, single point].
`COc1cccc(/C=C/c2nc(C#N)c(NCCN(C)C)o2)c1` was tested, and the Potency was active: 20 µM.
In the case of `CC(C)c1ccccc1NC(=O)COC(=O)CCN1C(=O)/C(=C\C=C\c2ccccc2)SC1=S`, the Potency is reported as active: 15.8 µM.
In the case of `COc1ccc(S(=O)(=O)N(Cc2cc3cc(C)ccc3[nH]c2=O)CC2CCCO2)cc1` (centres undefined), the Potency is reported as inconclusive: 25.1 µM [activator, single point].
With `CCOC(=O)c1[nH]c(C)c(CCC(=O)NCc2ccc(N(C)C)cc2)c1C` the max response, negative = inhibition was inactive: 3.68%.
`COc1cccc(NC(=O)C2CCC(CNS(=O)(=O)c3ccc4c(c3)CC(C)N4C(C)=O)CC2)c1` (centres undefined) was tested, and the Potency was inconclusive: 39.8 µM [activator, single point].
For `COc1ccc(S(=O)(=O)N2CCOCC2)cc1C(=O)Nc1nc2ccccc2s1`, the Potency was inconclusive: 31.6 µM [activator, single point].
With `CCOC(=O)c1cc(S(=O)(=O)Nc2ccc(C)cc2Cl)[nH]n1` the max response, negative = inhibition was inactive: 3.52%.
In the case of `Fc1ccccc1-c1ccc(/C=N/Nc2nc3ccccc3[nH]2)o1`, the Potency is reported as inconclusive: 31.6 µM [inhibitor, single point].
For `O=C(Nc1ccccc1N1CCN(c2ccc(F)cc2)CC1)c1ccccc1`, the Potency was inconclusive: 39.8 µM [inhibitor, single point].
With `O=C(O)Cn1nnc(-c2ccc(OCc3cccc(C(F)(F)F)c3)cc2)n1` the max response, negative = inhibition was inactive: 5.48%.
`CCn1cnc2sc(C(=O)N(Cc3ccc(N(C)C)cc3)Cc3ccco3)c(C)c2c1=O` was tested, and the Potency was inconclusive: 39.8 µM [activator, single point].
In the case of `Cc1nn(-c2ccccc2)c(C)c1C(=O)OCC(=O)c1c(N)n(CC(C)C)c(=O)n(C)c1=O`, the Potency is reported as inconclusive: 31.6 µM [activator, single point].
For `CCCOc1ccc(-c2c(=O)n(OCc3ccc([N+](=O)[O-])cc3)c3ccccc3[n+]2[O-])cc1`, the Potency was inconclusive: 39.8 µM [inhibitor, single point].
For `CC(=O)Nc1ccc(S(=O)(=O)N(C)CC(=O)OCC(=O)NC(C)C23CC4CC(CC(C4)C2)C3)cc1` (centres undefined), the Potency was inconclusive: 31.6 µM [activator, single point].
For `Cc1ccc(-c2nc3sc(CCNS(=O)(=O)c4cc(F)ccc4F)c(C)n3n2)cc1`, the max response, negative = inhibition was inactive: -0.168%.
With `COc1cccc(NS(=O)(=O)c2ccc3c(c2)C2C=CCC2C(c2ccc(C(=O)O)cc2)N3)c1` (centres undefined) the Potency was inconclusive: 39.8 µM [activator, single point].
In the case of `COC(=O)CSc1nc(-c2ccccc2)cc(-c2ccco2)c1C#N`, the Potency is reported as inconclusive: 31.6 µM [inhibitor, single point].
`COc1cc(/C=C/c2nc(C#N)c(N3CCCCCC3)o2)cc(OC)c1OC` was tested, and the Potency was inconclusive: 25.1 µM [activator, partial curve].
For `NC(=S)N/N=C/c1ccc(-c2cccc([N+](=O)[O-])c2)o1`, the Potency was active: 3.16 µM.
For `CSc1nc(C)cc(Nc2ccc(O)c(CN3CCOCC3)c2)n1`, the max response, negative = inhibition was inactive: 4.3%.
In the case of `CN(C(=O)CSc1nc2ccc(NC(=O)COc3ccc(Cl)cc3)cc2s1)c1ccccc1`, the Potency is reported as inconclusive: 3.16 µM [inhibitor, single point].
With `O=C(Nc1cc(-c2nc3ccccc3s2)ccc1Cl)c1cc2ccccc2o1` the max response, negative = inhibition was inactive: 1.91%.
In the case of `O=C(Nc1nc(-c2ccccc2)cs1)C1COc2ccccc2O1` (centres undefined), the Potency is reported as active: 25.1 µM.
For `COc1ccc(-c2cc(C(=O)Nc3c(C)nn(Cc4ccc(Cl)cc4)c3C)no2)cc1`, the Potency was inconclusive: 31.6 µM [inhibitor, single point].
In the case of `FC(F)(F)c1cc(NC(=S)NC23CC4CC(CC(C4)C2)C3)cc(C(F)(F)F)c1`, the max response, negative = inhibition is reported as inactive: -14.8%.
In the case of `COc1ccccc1CNC(=O)CN1C(=O)COc2ccc(S(=O)(=O)Nc3ccccc3)cc21`, the max response, negative = inhibition is reported as inactive: -22%.
In the case of `Cc1ccc(/C=C2/CCc3c([nH]c4ccccc34)C2=O)cc1`, the Potency is reported as active: 31.6 µM.
With `Cc1ccc(OCC(=O)N(c2ccc(C)cc2)S(=O)(=O)c2ccc(Cl)cc2)cc1` the Potency was inconclusive: 39.8 µM [inhibitor, single point].
For `Cn1cc(/C=C(\C#N)C(=O)Nc2ncc(Cc3cccc(Cl)c3)s2)c2ccccc21`, the Potency was active: 7.94 µM.
For `CCOC(=O)c1cnc(-c2ccccc2)nc1Oc1ccc(Cl)cc1`, the max response, negative = inhibition was inactive: 4.39%.
In the case of `COc1ccc(C(=O)Nc2ccc(-c3ccc(C)o3)cc2)cc1S(=O)(=O)N1CCOCC1`, the Potency is reported as inconclusive: 31.6 µM [activator, single point].
With `O=C(NCCc1ccc(Cl)cc1)C1CCN(S(=O)(=O)c2cccc3nonc23)CC1` the Potency was inconclusive: 25.1 µM [inhibitor, single point].
Note: nearly all actives have a fitted effect of over 40% in size.
Potency is the fitted concentration of half-maximal effect; tags give direction and shape of the fitted curve.
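Throughout, for max response, negative = inhibition: plate controls were enzyme without inhibitor for no effect and buffer without enzyme for full effect.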
